The values that follow come from the supplement of paper PMC11125491.

± gives the standard deviation of the averaged measurements. Growth of baker's yeast expressing single-residue variants of Pneumocystis jirovecii dihydrofolate reductase in 8.8 or 44 µM methotrexate (about 75% and 90% inhibition of the wild type). Selection coefficient per generation; 0 = like wild type, above 0 = less sensitive, below 0 = more sensitive or loss of function. No active / inactive call per row; the paper calls resistant above 0.220 (8.8 µM) or 0.243 (44 µM) together with a significance test. At 44 µM about 15% of codons end with one read or none, so the lowest values are floors (replicate rank correlation 0.74; 0.94 at 8.8 µM).

Sequences and labels used below:
B1: UniProt A0EPZ9; numbered along this chain (parent)
chain: MDWQKSLTLIVALTLSRGIGLKNDLPWKLKSDMMFFSRVTSGLLVTRSTGQMNVVLMGRKTWESLPAHSRPLKNRINVVISRQEVLDLGGGAYHARSLDDALALLSQIYDSTSKIQLNRVFVIGGGELCKAAMEHSRLNRIIATVIHNEVDCDVFFPIDFRSSQSCLPWRKQDHSVLEAWVGSKVPQGKINENGFIYEFEMWIRDI

The variants in the series derive from B1. Nature of the series: selection coefficient against synonymous wild-type codons (log2 per generation); higher = faster growth than wild type. As to conditions: with Saccharomyces cerevisiae carrying the variant on a plasmid. How it is done: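 Pooled growth of yeast carrying single-residue variants of P. jirovecii dihydrofolate reductase (own DFR1 gene intact), two passages at 30 °C, three cultures, sequenced before and after. Codons with under 15 starting reads are left out; codons of one change are averaged.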

As to MDWQKSLTLIVALTLSRGIGLKNDLPWKLKSDMMFFSRVTSGLFVTRSTGQMNVVLMGRKTWESLPAHSRPLKNRINVVISRQEVLDLGGGAYHARSLDDALALLSQIYDSTSKIQLNRVFVIGGGELCKAAMEHSRLNRIIATVIHNEVDCDVFFPIDFRSSQSCLPWRKQDHSVLEAWVGSKVPQGKINENGFIYEFEMWIRDI [L44F], the “selection coefficient against synonymous wild-type codons (log2)” value (“selection coefficient … (log2)” for short) reads like this: (methotrexate 8.8 µM) -0.0855 ± 0.071; (methotrexate 44 µM) -0.0475 ± 0.046.
The matching figures for MDWQKSLTEIVALTLSRGIGLKNDLPWKLKSDMMFFSRVTSGLLVTRSTGQMNVVLMGRKTWESLPAHSRPLKNRINVVISRQEVLDLGGGAYHARSLDDALALLSQIYDSTSKIQLNRVFVIGGGELCKAAMEHSRLNRIIATVIHNEVDCDVFFPIDFRSSQSCLPWRKQDHSVLEAWVGSKVPQGKINENGFIYEFEMWIRDI [L9E]: -0.37 ± 0.1 and -0.197 ± 0.2.
With MDWQKSLTLKVALTLSRGIGLKNDLPWKLKSDMMFFSRVTSGLLVTRSTGQMNVVLMGRKTWESLPAHSRPLKNRINVVISRQEVLDLGGGAYHARSLDDALALLSQIYDSTSKIQLNRVFVIGGGELCKAAMEHSRLNRIIATVIHNEVDCDVFFPIDFRSSQSCLPWRKQDHSVLEAWVGSKVPQGKINENGFIYEFEMWIRDI [I10K], the “selection coefficient … (log2)” value runs as follows: (methotrexate 8.8 µM) -0.0967 ± 0.047; (methotrexate 44 µM) 0.0248 ± 0.11.
The corresponding values for MDWQKSLTLIVALTLSRGIGLKNDLPWKLKSDMMFFSRVTSGLLVTRSTGQMNVVLMGRKTWESLPAHSRPLKNRINVVISRQEVLDLGGGAYHARSLDDALALLSQIYDSTSKIQLNRVFVIGGGELCKAAMEHSRLNRIIATVIHNEVDCDVFFPIDFRSSQSCLPWRIQDHSVLEAWVGSKVPQGKINENGFIYEFEMWIRDI [K171I] are -0.181 ± 0.047 and -0.16 ± 0.029.
The matching figures for MDWQKSLTLIVALTLSRGIGLKNDLPWKLKSDMMFFSRVTSGLLVTRSTGQMNVVLMGRKTWESLPAHSRPLKNRINVVISRQEVLDLGGGAYHARSLDDALALLSQIYDSTSKIQLNRVFVIGGGELCKAAMEHSRLNRIIATVIHNEVDCDVFFPIDFRSSQSCLPWRKQDHSVLEAHVGSKVPQGKINENGFIYEFEMWIRDI [W180H]: 0.205 ± 0.081 and 0.0925 ± 0.16.
Take MDWQKSLTLIVALTLSRGIGLKNDLPWKLKSDMMFFSRVTSGLLVTRSTGQMNVVLMGRKTWESLPAHSRPLKNRINVVISRQEVLDLGGGAYHARSLDDALALLSQKYDSTSKIQLNRVFVIGGGELCKAAMEHSRLNRIIATVIHNEVDCDVFFPIDFRSSQSCLPWRKQDHSVLEAWVGSKVPQGKINENGFIYEFEMWIRDI [I108K]: the “selection coefficient … (log2)” value (methotrexate 8.8 µM) is -0.141 ± 0.046 and the “selection coefficient … (log2)” value (methotrexate 44 µM) was -0.233 ± 0.19.
The corresponding values for MDWQKSLTLIVALTLSRGIGLKNDLPWKLKSDMMFFSRVTSGLLVTRSTGQMNVVLMGRKTWESLPAHSRPLKNRINVVISRQEVLDLGGGAYHARSLDDALALLSQIYDSTSKIQLNRVFVIGGGELCKAAMEHSRLNRIIATVIHNEVDCDVFFPIDFRSSQSCLPWRKQDHSVLEAWVGSKVPQGKINENGFIYEFEMWICDI [R204C] are -0.159 ± 0.051 and -0.0609 ± 0.025.
The corresponding values for MDWQKSLTLIVALTLSRGIGLKNDLPWKLKSDMMFFSRVTSGLLVTRSTGQMNVVLMGRKTWESLPAHSRPLKNRINVVISRQEVLDLGGGAYHARSLDDALALLSQIYDSTSKIQLNRVFVIGGGELCKAAMEHSRLNRIIATVIHNEVDCDVFFPIDFRSSQSCLPWRKQDHSVLEAWVGSKVPQGKINENGFIYEFEKWIRDI [M201K] are -0.322 ± 0.061 and -0.266 ± 0.12.
